{
  "source": "the BET-seq Pho4 binding data (Le et al. 2018)",
  "note": "This is one part of the list. The energies were worked out here from pooled read counts, against the library average; single values are noisy.",
  "data": [
    {"target": "T1, Pho4 (S. cerevisiae) (UniProt P07270)", "T1 sequence": "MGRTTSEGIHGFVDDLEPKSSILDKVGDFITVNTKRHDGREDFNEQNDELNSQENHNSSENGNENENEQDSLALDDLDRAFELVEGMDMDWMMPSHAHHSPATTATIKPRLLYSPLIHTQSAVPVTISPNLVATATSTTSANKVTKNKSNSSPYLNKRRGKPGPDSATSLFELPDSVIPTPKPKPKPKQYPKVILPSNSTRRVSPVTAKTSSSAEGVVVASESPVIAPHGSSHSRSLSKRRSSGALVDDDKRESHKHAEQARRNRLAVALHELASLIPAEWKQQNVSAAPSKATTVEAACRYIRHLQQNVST", "test": "relative binding free energy (BET-seq); higher = weaker binding", "settings": "reference: library average", "units": {"relative binding free energy": "kcal/mol"}, "values": [
      {"sequence": "ACGGGCACGTGCGTGG", "relative binding free energy": -0.2},
      {"sequence": "ATTTTCACGTGGGAAG", "relative binding free energy": 0.23},
      {"sequence": "TAGGGCACGTGCGTGA", "relative binding free energy": -0.25},
      {"sequence": "TCGGACACGTGTGGGC", "relative binding free energy": 0.01},
      {"sequence": "ATATTCACGTGGTGGA", "relative binding free energy": 0.18},
      {"sequence": "TTACGCACGTGTGGTA", "relative binding free energy": -0.01},
      {"sequence": "TTTGCCACGTGTTAGG", "relative binding free energy": -0.11},
      {"sequence": "GTAAGCACGTGGGCTG", "relative binding free energy": -0.15},
      {"sequence": "ATTGGCACGTGGGCAC", "relative binding free energy": -0.23},
      {"sequence": "TAAGGCACGTGTGACG", "relative binding free energy": -0.01},
      {"sequence": "TTGGTCACGTGTTGAA", "relative binding free energy": 0.2},
      {"sequence": "AGTGGCACGTGAGACG", "relative binding free energy": 0.18},
      {"sequence": "GCTGTCACGTGAGTAG", "relative binding free energy": 0.26},
      {"sequence": "TCGATCACGTGGTTGA", "relative binding free energy": 0.25},
      {"sequence": "TACGGCACGTGAGATT", "relative binding free energy": 0.2},
      {"sequence": "GGTAACACGTGCGATG", "relative binding free energy": 0.22},
      {"sequence": "ATTTTCACGTGAATTT", "relative binding free energy": 0.37},
      {"sequence": "AATGGCACGTGTATGA", "relative binding free energy": -0.05},
      {"sequence": "AGTAACACGTGAGGCT", "relative binding free energy": 0.17},
      {"sequence": "TTCGGCACGTGGGTCA", "relative binding free energy": -0.33},
      {"sequence": "GGATACACGTGGAGTG", "relative binding free energy": 0.01},
      {"sequence": "TGGTGCACGTGGGAGG", "relative binding free energy": -0.1},
      {"sequence": "TATCGCACGTGGCAGG", "relative binding free energy": -0.11},
      {"sequence": "GATAACACGTGGTATG", "relative binding free energy": 0.09},
      {"sequence": "TGTAGCACGTGTTAGT", "relative binding free energy": 0.06},
      {"sequence": "ATGTGCACGTGATGCT", "relative binding free energy": 0.07},
      {"sequence": "TAGATCACGTGTATAG", "relative binding free energy": 0.24},
      {"sequence": "TCGGACACGTGATGGG", "relative binding free energy": 0.16},
      {"sequence": "GATGTCACGTGTTAGT", "relative binding free energy": 0.23},
      {"sequence": "CTAGCCACGTGATGGT", "relative binding free energy": 0.13},
      {"sequence": "TTATGCACGTGTGTTT", "relative binding free energy": 0.05},
      {"sequence": "TTGCCCACGTGGTGGT", "relative binding free energy": -0.15},
      {"sequence": "GATTGCACGTGGTTGT", "relative binding free energy": 0.01},
      {"sequence": "GTATTCACGTGATCGT", "relative binding free energy": 0.18},
      {"sequence": "AGGTGCACGTGTACAG", "relative binding free energy": -0.16},
      {"sequence": "ATTTGCACGTGTAATC", "relative binding free energy": 0.12},
      {"sequence": "TATTTCACGTGCAAGG", "relative binding free energy": 0.2},
      {"sequence": "TAATGCACGTGTCGGG", "relative binding free energy": 0.02},
      {"sequence": "ATATTCACGTGTTTTT", "relative binding free energy": 0.21},
      {"sequence": "GTTCACACGTGTAGTT", "relative binding free energy": 0.09},
      {"sequence": "TTAATCACGTGGGTCT", "relative binding free energy": 0.09},
      {"sequence": "TTGTGCACGTGTTCGG", "relative binding free energy": 0.01},
      {"sequence": "GGTTGCACGTGTTGCC", "relative binding free energy": 0.05},
      {"sequence": "GAGTTCACGTGTCATT", "relative binding free energy": 0.28},
      {"sequence": "TGAATCACGTGTGAGG", "relative binding free energy": 0.25},
      {"sequence": "TCGTACACGTGGGATG", "relative binding free energy": -0.12},
      {"sequence": "AGGCGCACGTGGAGTT", "relative binding free energy": -0.1},
      {"sequence": "CGCGTCACGTGGGGAA", "relative binding free energy": -0.06},
      {"sequence": "GTGCGCACGTGTAGGG", "relative binding free energy": -0.03},
      {"sequence": "TGGGACACGTGGCTTG", "relative binding free energy": -0.02},
      {"sequence": "ATATGCACGTGAATGA", "relative binding free energy": 0.17},
      {"sequence": "GGACGCACGTGAGGGC", "relative binding free energy": 0.31},
      {"sequence": "GCGGTCACGTGGTATG", "relative binding free energy": 0.05},
      {"sequence": "AGGTTCACGTGTTGTG", "relative binding free energy": 0.25},
      {"sequence": "GACGGCACGTGAATGG", "relative binding free energy": 0.21},
      {"sequence": "AGTCGCACGTGAGTGG", "relative binding free energy": 0.24},
      {"sequence": "ACGGTCACGTGGGAAA", "relative binding free energy": 0.12},
      {"sequence": "GGTACCACGTGGGTGT", "relative binding free energy": -0.32},
      {"sequence": "GGGGGCACGTGTGCCA", "relative binding free energy": -0.13},
      {"sequence": "GGTTGCACGTGTGGCA", "relative binding free energy": -0.02},
      {"sequence": "GTGGACACGTGAGTTT", "relative binding free energy": 0.32},
      {"sequence": "TGGCGCACGTGCAGTT", "relative binding free energy": -0.01},
      {"sequence": "TTTGGCACGTGGGGTT", "relative binding free energy": -0.17},
      {"sequence": "AGTGTCACGTGACGCG", "relative binding free energy": 0.16},
      {"sequence": "TATGTCACGTGGGTTC", "relative binding free energy": -0.06},
      {"sequence": "TGGATCACGTGTTAAG", "relative binding free energy": 0.27},
      {"sequence": "TAGTGCACGTGTTGAT", "relative binding free energy": -0.04},
      {"sequence": "TTGTGCACGTGCAGGT", "relative binding free energy": -0.14},
      {"sequence": "AGAATCACGTGATGTG", "relative binding free energy": 0.12},
      {"sequence": "GGAGGCACGTGATTTG", "relative binding free energy": 0.07},
      {"sequence": "AAGTGCACGTGGGGAA", "relative binding free energy": -0.21},
      {"sequence": "TATTTCACGTGGTAAG", "relative binding free energy": 0.18},
      {"sequence": "ATTTGCACGTGTCGTA", "relative binding free energy": 0.02},
      {"sequence": "ATTGACACGTGAGGAT", "relative binding free energy": 0.17},
      {"sequence": "ATGAGCACGTGTATTG", "relative binding free energy": -0.08},
      {"sequence": "GGCGGCACGTGTAAAG", "relative binding free energy": 0.04},
      {"sequence": "ACTTTCACGTGGGCTT", "relative binding free energy": 0.16},
      {"sequence": "AAAGGCACGTGGAAAG", "relative binding free energy": 0.08},
      {"sequence": "ACTTTCACGTGAATTT", "relative binding free energy": 0.45},
      {"sequence": "TTGTGCACGTGCGATG", "relative binding free energy": 0.14},
      {"sequence": "ATCAGCACGTGAGGTG", "relative binding free energy": 0.13},
      {"sequence": "CATGGCACGTGCGTTT", "relative binding free energy": -0.15},
      {"sequence": "CGGTTCACGTGCATGG", "relative binding free energy": 0.2},
      {"sequence": "TTCATCACGTGTAGGT", "relative binding free energy": 0.25},
      {"sequence": "TAGGGCACGTGCTCGG", "relative binding free energy": -0.26},
      {"sequence": "TGTTTCACGTGACGAG", "relative binding free energy": 0.15},
      {"sequence": "TTGGGCACGTGCGGAT", "relative binding free energy": -0.01},
      {"sequence": "TAGCTCACGTGTGTGA", "relative binding free energy": 0.27},
      {"sequence": "AATGTCACGTGAAGGC", "relative binding free energy": 0.45},
      {"sequence": "TATTTCACGTGGAATA", "relative binding free energy": 0.24},
      {"sequence": "TTGATCACGTGGCATG", "relative binding free energy": -0.01},
      {"sequence": "ATATTCACGTGTTGAG", "relative binding free energy": 0.12},
      {"sequence": "TGGCACACGTGGTTCG", "relative binding free energy": -0.03},
      {"sequence": "GAGGGCACGTGGGCGA", "relative binding free energy": -0.42},
      {"sequence": "TTATTCACGTGTTTAT", "relative binding free energy": 0.17},
      {"sequence": "GGGAACACGTGCGGGG", "relative binding free energy": 0.01},
      {"sequence": "TGTGCCACGTGGGTGA", "relative binding free energy": -0.34},
      {"sequence": "TGGGTCACGTGTGCTA", "relative binding free energy": 0.02},
      {"sequence": "AGGTTCACGTGGAAGC", "relative binding free energy": 0.29},
      {"sequence": "TTCGACACGTGTAAGT", "relative binding free energy": 0.18},
      {"sequence": "TGTTTCACGTGAAGCA", "relative binding free energy": 0.39},
      {"sequence": "TTTTTCACGTGGGAGT", "relative binding free energy": 0.2},
      {"sequence": "ATGGGCACGTGCTGTT", "relative binding free energy": -0.19},
      {"sequence": "GGTAACACGTGCGGAG", "relative binding free energy": 0.15},
      {"sequence": "TTTGTCACGTGCGGCA", "relative binding free energy": 0.06},
      {"sequence": "CGTGGCACGTGTGTGT", "relative binding free energy": -0.11},
      {"sequence": "GACAGCACGTGTGGTG", "relative binding free energy": 0.22},
      {"sequence": "TGGGTCACGTGATTAC", "relative binding free energy": 0.16},
      {"sequence": "TAGGACACGTGTAAAG", "relative binding free energy": 0.15},
      {"sequence": "TTGGACACGTGGGCTG", "relative binding free energy": -0.14},
      {"sequence": "GGTTTCACGTGTAGCC", "relative binding free energy": 0.47},
      {"sequence": "TTTACCACGTGCGGGT", "relative binding free energy": -0.09},
      {"sequence": "AGGGTCACGTGTGAGT", "relative binding free energy": 0.22},
      {"sequence": "ATATTCACGTGGGCGA", "relative binding free energy": 0.17},
      {"sequence": "GTGGGCACGTGTGTAC", "relative binding free energy": -0.03}
    ]}
  ]
}
